This note sets out measurements from PubChem BioAssay (NCI).

The test system of this assay is NCI-H322M lung. Description: DTP human tumour cell line panel, 48 h.

“And” between values parts separate entries of the source, which are not always exact repeats. Equal entries are not always repeated.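 Where inhibition never reached the appropriate level, the endpoint shown equals the highest concentration tested. Otherwise, values were interpolated linearly from a five-concentration, 48-hour dose response in 96-well plates. GI50: concentration for 50% inhibition of growth. At the TGI there is no net growth.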 Where only a bound is given, the exact number is not on record here.

The molecule `OC1(C(F)(F)F)OCCN=C1C(F)(F)F` (centres undefined) returned a TGI greater than 100 µM.

Consider `COc1cc(OC)c(-c2ccc(OCc3ccccc3)c3c(OC)cc(C)cc23)c2c1C(C)=N[C@H](C)C2`, for which the TGI was 4.81 µM.

For `CN1CCN(C(=O)CCNC(=O)Cc2ccc(C(=O)c3ccccc3)cc2)CC1`, the TGI is greater than 100 µM.

The molecule `CCc1cc2c(oc3cc4ccccc4cc32)c(=O)[nH]1` had a total growth inhibition concentration (TGI) greater than 10 µM.

For `Cc1c([N+](=O)[O-])ccc2c(NCCCN(C)C)ccnc12`, the TGI is greater than 100 µM.

Regarding `CCCC(=O)n1[nH]c(=O)n(-c2ccc(Cl)cc2)c1=O`, the TGI was greater than 100 µM.

For `CC(=O)Nc1ccc(N2C(=O)/C(=C\c3cccc(Oc4ccccc4)c3)S(=O)(=O)C2c2ccccc2)cc1` (centres undefined), the TGI was greater than 100 µM.

In the case of `COc1ccc(C(=O)C(c2ccc(OC)cc2)C2(O)C(=O)Nc3ccc([N+](=O)[O-])cc32)cc1` (centres undefined), the TGI was greater than 100 µM.

In turn, `CC1(C)CC(=O)c2[nH]c3ccccc3c2CC(=O)NCCc2cn1cn2` yielded a TGI greater than 100 µM.

In turn, `CC(C)(C)OC(=O)N1CCc2[nH][nH]c(=O)c2C1` returned a TGI greater than 100 µM.

`O=C(O)c1ccc(Nc2c3ccccc3nc3ccccc23)cc1`: the TGI is greater than 100 µM.

On to `CC(C)CC1C(=O)NCCC(NC(=O)C(Cc2ccc(OC(C)(C)C)cc2)NC(=O)OC(C)(C)C)C(=O)NC(Cc2ccccc2)C(=O)NC(Cc2ccccc2)NC1=O` (centres undefined), for which the TGI came to 26.8 µM.

`COC1(OC)CC2C(=O)N(Cc3ccccc3)C1C(S(=O)(=O)c1ccccc1)C2S(=O)(=O)c1ccccc1` (centres undefined) gave a TGI greater than 100 µM.

Turning to `[Cl][Hg][c]1cc(Br)cc(Br)c1`, the GI50 is 3.04 µM and the TGI stood at 11.5 µM.

`CC(C)(C)[Si](OC1CC(n2cnc3c(N)ncnc32)OC1CO)(c1ccccc1)c1ccccc1` (centres undefined) registered a TGI of 43.9 µM.

On to `CCCCCCCCCCCCOC1C(C(COC2OC(C3COC(C)(C)O3)C3OC(C)(C)OC23)NC(=O)Nc2ccc(C(=O)O)cc2)OC2OC(C)(C)OC21` (centres undefined), for which the GI50 is 2.6 µM and the TGI stood at 5.3 µM.

For `CC1(c2cccs2)CC(c2cccs2)=C(C#N)C(=C(C#N)C#N)N1` (centres undefined), the TGI is 30.4 µM.

`CN(Cc1cnc2nc(N)nc(N)c2n1)c1ccc(C(=O)NC(CCC(=O)NCCC(P(=O)(O)O)P(=O)(O)O)C(=O)O)cc1` (centres undefined) had a TGI greater than 100 µM.

Molecule `OCC1OC(c2cccc3cc(O)c(O)cc23)CC1O` (centres undefined) returned a TGI greater than 100 µM.

`COc1cc(/C=C2\C[C@H]3[C@@H]4CCc5cc(O)ccc5[C@H]4CC[C@]3(C)C2=O)cc(OC)c1OC` yielded a TGI of 34.6 µM.

Take `CC(C)c1ccccc1NC(=O)CCc1n[nH]c(=S)o1`: the TGI was greater than 100 µM.

Regarding `O=C1NC(=O)C(c2c[nH]c3ccccc23)=C1c1cnc[nH]1`, the TGI was greater than 100 µM.

`Cc1cc(C)n(C(=C(C(Cl)=C(Cl)Cl)[N+](=O)[O-])n2nc(C)cc2C)n1` returned a TGI of 14.8 µM.

In turn, `N#CC(N)(C(=O)CCC(=O)Nc1cccc(Cl)c1)c1ccc(Cl)cc1` (centres undefined) showed a TGI greater than 100 µM.

`Nc1ccc(-c2nc3cc(F)ccc3s2)cc1Cl`: the TGI was greater than 44.3 µM.

Take `NC1CC(=O)c2c(Br)csc21` (centres undefined): the TGI was greater than 100 µM.

With `CCN1CCN(C(c2ccc(C(F)(F)F)cc2)c2ccc3cccnc3c2O)CC1` (centres undefined), the GI50 was 0.602 µM and the concentration for total growth inhibition (TGI) came to 22.9 µM.

`CC1=CC(C)C/C=C/C2C3OC3(C)C(C)C3C(Cc4c[nH]c5ccccc45)NC(=O)C23C(=O)C=CC(=O)C1O` (centres undefined): the TGI was 29 µM.

Take `Cc1ccc(NC(=O)C(=O)C(C(=O)c2ccc3ccccc3c2)C2OC(=O)c3ccccc32)cc1C` (centres undefined): the TGI stood at 55.1 µM.

On to `C=C(c1nc2ccc(Cl)cc2[nH]c1=O)C(O)c1ccc(C(O)C(=O)c2nc3ccc(Cl)cc3[nH]c2=O)cc1` (centres undefined), for which the TGI is greater than 100 µM.

`CC(C)(C)CC(C)(C)c1cc2c(O)c(c1)Cc1cc(C(C)(C)CC(C)(C)C)cc(c1O)Cc1cc(C(C)(C)CC(C)(C)C)cc(c1O)Cc1cc(C(C)(C)CC(C)(C)C)cc(c1O)C2`: the TGI is greater than 100 µM.

Regarding `COc1ccc(C2COc3cc(OC(C)=O)c(OC(C)=O)cc3C2)cc1` (centres undefined), the TGI came to 48.5 µM.

Regarding `O=C(CNc1ccc(Cl)cc1)Nc1ccc(-c2nc3ccccc3s2)cc1`, the GI50 was 5.37 µM and the TGI came to 11.7 µM.

Take `Cc1ccc(C)c(C2=C(c3cn(C)c4ccccc34)C(=O)NC2=O)c1`: the GI50 was greater than 19.6 µM and the TGI is greater than 25 µM.

For the molecule `CN1CCN(CCOc2ccc(-c3cnc4c(-c5ccccc5F)cnn4c3)cc2)CC1`, the GI50 is 1.76 µM and the TGI was determined as 3.28 µM.

Molecule `COC(=O)C(=Cc1cc(OC)ccc1OC)C(=O)OC` gave a TGI greater than 100 µM.

Take `CC(C)=CC/C=C(/C)[C@H]1CC[C@]2(C)[C@@H]1CC[C@@H]1[C@@]3(C)CCCNC(C)(C)[C@@H]3CC[C@]12C`: the GI50 is 1.87 µM and the TGI amounted to 4.07 µM.

Molecule `COc1cc2cc3c4c(cc(OC)c(OC)c4c2cc1OC)CCN3C(=O)OCCN1CCNCC1` had a TGI of 32.1 µM.

`CCC[CH2][Sn]1([CH2]CCC)[O]N=C(c2ccccc2)C(c2ccccc2)[O]1` (centres undefined): the GI50 was 6.84 µM and the TGI came to 19.6 µM.

Turning to `CC1(C)COC(c2cccnc2/C=N/O)=N1`, the TGI was greater than 100 µM.

With `CN(C)CCCNC(=O)c1cc2[nH]c3c(cnc4ccc([N+](=O)[O-])cc43)c(=O)c2n1C`, the GI50 was 15.7 µM and the TGI is 33.1 µM.

As for `Nc1ccc2c(c1)N(C(=O)c1cc3cc(NC(=O)c4cc5ccccc5o4)ccc3[nH]1)CC2CCl` (centres undefined), the TGI was greater than 39.8 µM.

Take `CCN(CC)CCC(CNc1ccnc2cc(Cl)ccc12)c1ccc(OC)cc1` (centres undefined): the GI50 was 2.82 µM and 4.84 µM; the TGI was 15.7 µM and 25.6 µM.

`O=C(O)C1C2C=CC(O2)C1C(=O)NCc1ccccn1` (centres undefined) gave a TGI greater than 100 µM.

With `COc1cc(C2SCC(=O)N2c2ccccn2)cc(OC)c1OC` (centres undefined), the TGI is greater than 100 µM.

In turn, `COc1ccc(N2C(=O)/C(=C(\C)c3cc4ccccc4oc3=O)N=C2c2cc([N+](=O)[O-])ccc2Cl)cc1` came in with a TGI greater than 100 µM.

In turn, `COc1cc(C(=O)n2c3ccc(Br)cc3c3nc4ccccc4nc32)cc(OC)c1OC` showed a TGI greater than 100 µM.

Molecule `CN(CC(=O)O)c1ncc2c(n1)-c1ccccc1SC2` gave a TGI greater than 100 µM.

`N#Cc1nc2ccccc2nc1N1CCN(c2ccc([N+](=O)[O-])cc2)CC1` had a TGI greater than 100 µM.

With `NNC(=S)N/N=C(\CC1OC(=O)c2ccccc21)c1ccccc1O` (centres undefined), the TGI was greater than 100 µM.

Turning to `C=C(CCC/C(C)=C/C=C/[C@]1(C)CCCc2ccoc21)CC(=O)O`, the TGI is greater than 100 µM.

For `O=C(CCn1[nH]c(=O)c(Cl)c(Cl)c1=O)NO`, the TGI is greater than 100 µM.

`NC(=Nc1c([N+](=O)[O-])cnc2ccccc12)N1CCOCC1` came in with a TGI greater than 100 µM.

Turning to `CNc1ccc(C(=O)CC(O)CCC(C)C2OC(=O)CC(O)CC(=O)CC(O)CC(O)CC(O)CC(O)CC3(O)CC(O)C(C(=O)NCCN(C)C)C(CC(OC4OC(C)C(O)C(NC(=O)CN5CCN(C)CC5)C4O)/C=C/C=C/C=C/C=C\C=C/C=C/C=C/C2C)O3)cc1` (centres undefined), the TGI was greater than 100 µM.

In turn, `S=C(Nc1ccccc1)N(/N=C/C=C/c1ccccc1)c1nnc(-c2ccccc2)c(-c2ccccc2)n1` came in with a TGI greater than 100 µM.

Regarding `C/C(=N\NC(=S)N1CCCCC1)c1nc2ncccc2[nH]1`, the TGI was greater than 100 µM.

As to `C=C1C(=O)C[C@H]2C(=C)C(=O)O[C@@H]2C2C1CC[C@@]2(C)O` (some centres undefined), the TGI is greater than 100 µM.

Consider `CC(C)CCN1c2nc(Nc3cc(F)c(O)c(F)c3)ncc2N(C)C(=O)C1C` (centres undefined), for which the GI50 is 7.39 µM and the TGI is 54.7 µM.

`CN(C)/C=N/c1nc2c(ncn2C2OC(CO)C(O)C2O)c(=O)[nH]1` (centres undefined) had a TGI greater than 100 µM.

As for `COc1ccc(-n2cc(-c3cc(OC)c(OC)c(OC)c3)c(C(=O)C(F)(F)F)c2C)cc1`, the GI50 was greater than 100 µM and the TGI is greater than 100 µM.

In turn, `COC(=O)C1=C(O)c2cc(OC)c(OC)cc2C(c2ccc(OC)c(OC)c2)C1` (centres undefined) registered a TGI greater than 100 µM.

As for `O=C(Cc1ccc(/C=C/C(=O)c2ncc[nH]2)cc1)Nc1cc(F)c(F)c(F)c1`, the GI50 is 4.35 µM and the TGI is 10.2 µM.

For the molecule `O=c1cnn(C2OC(C(O)CO)C(O)C2O)c(=O)[nH]1` (centres undefined), the TGI was greater than 100 µM.

The molecule `CNC(C#N)c1ccc(OC)cc1` (centres undefined) gave a TGI greater than 100 µM.

Turning to `Cn1c2ccccc2c2c3c(c4c5cc(Br)ccc5n(C)c4c21)C(=O)N(O)C3=O`, the GI50 was 0.374 µM and the TGI was greater than 100 µM.

Molecule `CC(C)(Cl)C(Br)CCC(C)(Cl)C(Br)CBr` (centres undefined) gave a TGI greater than 100 µM.

`CCCC[C@@H]1CCN2C[C@@H](O)[C@@H](O)[C@@H]2[C@H]1O` came in with a TGI greater than 100 µM.

Take `NC(=O)NC1C(c2ccccc2)=C1c1ccccc1`: the TGI came out at 49.7 µM.

The molecule `CC(=O)N(C)c1ccc(Nc2cc(C)[nH]c3ccc4ncnc4c23)cc1` showed a TGI of 29.2 µM.

With `N#Cc1c(NN)n(C2OC(CO)C(O)C2O)c2ncnc(N)c12` (centres undefined), the GI50 is 0.371 µM and the TGI was greater than 22.6 µM.

Take `CCN(CC)CCOc1ccc(-c2nc3cc(Cl)ccc3s2)cc1`: the GI50 is 1.62 µM and the TGI worked out at 3.28 µM.

The molecule `CCOC(=O)c1c(NC(=O)c2cccs2)sc2c1CCCC2` showed a TGI greater than 100 µM.

For the molecule `CC(=O)c1cccc(NC(=O)C(=O)NNc2n[nH]c(=S)n2N)c1`, the TGI is 26.6 µM.

Turning to `COc1ccc2c3c([nH]c2c1[N+](=O)[O-])C(C)=NCC3`, the TGI is greater than 100 µM.

For `CN(C)c1ccc(C(C=C2c3ccccc3Sc3ccccc32)=C(C#N)C#N)cc1`, the TGI is greater than 100 µM.

Regarding `O=C(Nc1nc2ccc(C(F)(F)F)cc2s1)c1cc(Cl)ccc1O`, the GI50 was 0.661 µM and the TGI was greater than 100 µM.

For `OC[C@H]1C[C@](O)(c2ccc(Cl)cc2)[C@@H](c2ccc(Cl)cc2)O1`, the GI50 was 35.2 µM and the TGI is greater than 100 µM.

Regarding `COc1cc2nc(-c3ccc(Cl)cc3)cc(OCCCN3CCCCC3)c2cc1OC`, the GI50 is 4.42 µM and the total growth inhibition concentration (TGI) was greater than 100 µM.

`O=c1cc(N2CCOCC2)[nH]c(=O)n1-c1ccc(F)cc1`: the TGI is greater than 100 µM.

Regarding `CC(O)CCC(=O)c1ccoc1` (centres undefined), the TGI is greater than 10000 µM.

On to `CS(=O)(=O)Nc1ccc2c(c1)oc(=O)c1ccccc12`, for which the TGI is greater than 100 µM.

As for `N#CC(=C1C=CC(=NO)C=C1)c1ccccc1`, the GI50 was 4.26 µM and the TGI came out at 21 µM.

As for `C[N+](CCCl)(CCCl)Cc1cccc2cccc([N+](=O)[O-])c12`, the TGI is greater than 100 µM.

Regarding `O=[N+]([O-])c1ccc(C2=Nn3cnnc3SC2)o1`, the TGI is greater than 100 µM.
